T1: RBFOX1 RRM (Homo sapiens, UniProt Q9NWB1 109-208)
T1 sequence: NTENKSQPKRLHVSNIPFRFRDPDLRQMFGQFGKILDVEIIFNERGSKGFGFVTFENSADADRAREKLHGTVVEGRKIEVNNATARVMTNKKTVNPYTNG

B1: UGGUUAC (DNA:RNA)
RNA: GGGAGACCGGAAUUCAGAUUGUCCUGGUUACUUAAAUCCCGUCGUAGCCACCA
DNA 1: CAATCTGAATTCCGGTCTCCC
DNA 2: TGGTGGCTACGACGGGATT
B2: UACCACC (DNA:RNA)
RNA: B1 RNA with G26A, G27C, U28C, U29A, A30C
DNA 1: CAATCTGAATTCCGGTCTCCC
DNA 2: TGGTGGCTACGACGGGATT
B3: UGAACUU (DNA:RNA)
RNA: B1 RNA with G27A, U28A, U29C, A30U, C31U
DNA 1: CAATCTGAATTCCGGTCTCCC
DNA 2: TGGTGGCTACGACGGGATT
B4: UGGACAG (DNA:RNA)
RNA: B1 RNA with U28A, U29C, C31G
DNA 1: CAATCTGAATTCCGGTCTCCC
DNA 2: TGGTGGCTACGACGGGATT
B5: UCUUCAA (DNA:RNA)
RNA: B1 RNA with G26C, G27U, U29C, C31A
DNA 1: CAATCTGAATTCCGGTCTCCC
DNA 2: TGGTGGCTACGACGGGATT
B6: UGCUUGC (DNA:RNA)
RNA: B1 RNA with G27C, A30G
DNA 1: CAATCTGAATTCCGGTCTCCC
DNA 2: TGGTGGCTACGACGGGATT
B7: AGCUUUU (DNA:RNA)
RNA: B1 RNA with U25A, G27C, A30U, C31U
DNA 1: CAATCTGAATTCCGGTCTCCC
DNA 2: TGGTGGCTACGACGGGATT
B8: GGGGCCG (DNA:RNA)
RNA: B1 RNA with U25G, U28G, U29C, A30C, C31G
DNA 1: CAATCTGAATTCCGGTCTCCC
DNA 2: TGGTGGCTACGACGGGATT
B9: GGCCUUC (DNA:RNA)
RNA: B1 RNA with U25G, G27C, U28C, A30U
DNA 1: CAATCTGAATTCCGGTCTCCC
DNA 2: TGGTGGCTACGACGGGATT

Numbering of substitutions follows the chain as printed; changes in the protein carry UniProt numbers. The list shows a part of the results.

The experiment deals with T1, RBFOX1 RRM. Briefly: EMSA; HiTS-Eq, 1 nM pool, 10 min; buffer printed only for the single-RNA assays: 10 mM Tris pH 7.5, 150 mM NaCl, 3.4 mM EDTA, 0.001% NP-40, 30 C. To be noted: tags: His6 N-terminal (pET28a); label: 5' 32P. The method in brief: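 Purified wild-type or mutant RbFox RRM at increasing concentrations was equilibrated with 1 nM of 5′-radiolabelled RNA carrying 7 randomized nucleotides for 10 min in 50 µL. Unbound RNA was separated by 8% native PAGE and sequenced. Relative association constants came from read-count changes of each RNA species compared with the control reaction, normalised to the cognate motif.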
On the technique in general: In EMSA bound probe runs differently from free probe, usually more slowly.
With B1, the binding signal is 0.0158 KA relative to UGCAUGU.
Take B2: the binding signal was 0.00077 KA relative to UGCAUGU.
With B3, the binding signal was 0.0116 KA relative to UGCAUGU.
The result for B4 reads 0.0221 KA relative to UGCAUGU; that for B5, 0.00525 KA relative to UGCAUGU; that for B6, 0.088 KA relative to UGCAUGU.
In the case of B7, the binding signal is 0.0103 KA relative to UGCAUGU.
For B8, the binding signal is 0.027 KA relative to UGCAUGU.
The result for B9 reads 0.00592 KA relative to UGCAUGU.

The values are drawn from PMC9911399, “Two distinct binding modes provide the RNA-binding protein RbFox with extraordinary sequence specificity”.
